The full ranking holds about 110,000 compounds; the median of “z-score” is about -0.1, and the highest 2% start at about 2. The list shows a part of the results. Activity calls are given as the source filed them.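 How the source made its calls: active means z-score in the third read window above 3 or below -3; inactive means the rest.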
What follows are molecules tested against Metabotropic glutamate receptor 8 (Rattus norvegicus) (UniProt P70579) (assay: mGluR8 Gi/Go-coupled signaling modulation – cell-based, rat, thallium flux, HTS, primary screen (AID 488969)). Details: HEK293 rat mGluR8, GIRK (G protein-gated inwardly rectifying potassium channel) thallium flux, FluoZin2; at 10 µM; stronger effect = higher value; submaximal glutamate (EC20) added with thallium.
UniProt P70579, sequence (P70579 whole entry, looked up): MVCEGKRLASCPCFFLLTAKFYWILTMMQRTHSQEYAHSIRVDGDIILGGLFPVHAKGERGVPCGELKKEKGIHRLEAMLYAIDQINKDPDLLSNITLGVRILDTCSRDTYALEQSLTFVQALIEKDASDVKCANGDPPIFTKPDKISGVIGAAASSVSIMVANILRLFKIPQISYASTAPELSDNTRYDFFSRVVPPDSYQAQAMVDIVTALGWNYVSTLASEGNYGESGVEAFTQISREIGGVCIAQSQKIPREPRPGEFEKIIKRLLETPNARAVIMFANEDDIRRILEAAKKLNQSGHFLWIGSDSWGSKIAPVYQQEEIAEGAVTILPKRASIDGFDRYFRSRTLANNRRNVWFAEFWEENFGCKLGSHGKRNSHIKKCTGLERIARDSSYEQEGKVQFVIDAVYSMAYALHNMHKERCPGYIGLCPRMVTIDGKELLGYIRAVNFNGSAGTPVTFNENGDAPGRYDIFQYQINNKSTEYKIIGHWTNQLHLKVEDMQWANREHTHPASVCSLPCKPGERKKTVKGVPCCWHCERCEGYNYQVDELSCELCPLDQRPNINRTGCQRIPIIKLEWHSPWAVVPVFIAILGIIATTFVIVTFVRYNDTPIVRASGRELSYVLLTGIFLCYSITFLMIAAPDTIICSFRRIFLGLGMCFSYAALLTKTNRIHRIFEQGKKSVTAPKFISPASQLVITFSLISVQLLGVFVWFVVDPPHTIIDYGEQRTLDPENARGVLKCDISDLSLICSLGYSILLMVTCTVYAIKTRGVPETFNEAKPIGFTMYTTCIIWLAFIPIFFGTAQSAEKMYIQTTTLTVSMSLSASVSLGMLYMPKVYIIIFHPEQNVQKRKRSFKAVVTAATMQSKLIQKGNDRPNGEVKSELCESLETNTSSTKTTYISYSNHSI
In the case of `CSc1ncc(Cl)c(C(=O)Nc2ccccc2Cl)n1`, the z-score was -0.152. Work on `COc1ccc(CC(=O)Nc2ccc(/C(C)=N/NC(=O)c3cccc([N+](=O)[O-])c3)cc2)cc1` yielded a z-score of 0.0561. In the case of `S=c1[nH]c2cc(Cl)ccc2s1`, the z-score was active: 14.9. Molecule `CCCCC(=O)Nc1cccc(-c2nc3ncccc3o2)c1` has a z-score of 0.393. For `Cc1nn(C)c(Oc2cccc(Cl)c2)c1C(=O)Nc1ccc(F)cc1F`, the z-score was -0.15. Molecule `COC(=O)c1nn(-c2ccccc2)c(=O)cc1Oc1ccc(Cl)cc1` has a z-score of -0.311. `COc1ccc(OCc2nn3c(-c4ccccn4)nnc3s2)cc1` gave a z-score of -0.417. Molecule `C=CCn1c(SCc2ccc(C#N)cc2)nnc1-c1ccccc1` has a z-score of 0.0791. `COc1ccc(C(NC(=O)c2ccco2)c2ccc(OC)c(OC)c2)cc1` (stereo not drawn) showed a z-score of -0.189. For `CCOC(=O)c1nnn(CC(=O)Nc2cccc(Cl)c2C)c1C(=O)OCC`, the z-score was 2.12. `CCOC(=O)c1ccc(NC(=O)CC2S/C(=N/N=C/c3c[nH]c4ccccc34)NC2=O)cc1` (stereo not drawn) showed a z-score of -0.326. For `O=C(N1CCN(c2ccccc2)CC1)C(F)(F)C(F)F`, the z-score was -0.395. `CCOC(=O)c1sc(NC(=O)c2c(C)nn(Cc3ccccc3)c2C)cc1C` was tested, and the z-score was -0.786. `COc1ccc(C(=O)N2c3ccccc3CC2C)cc1OC` (stereo not drawn) showed a z-score of -0.0572. With `O=C(/C=C/c1ccccc1)N/C(=C/c1ccccc1)C(=O)NCCCO` the z-score was -0.106. Molecule `Cc1nonc1NC(=O)Nc1cccnc1` has a z-score of 0.0982. For `CC(=O)c1ccc(NC(=O)c2ccc(CSc3ccccc3)o2)cc1`, the z-score was -0.442. `O=C(Nc1ccc(-c2noc(-c3cccs3)n2)cc1)c1cccnc1` gave a z-score of 0.207. In the case of `COc1ccc(C2CC(c3ccccc3)=NN2C(=O)COC(=O)c2cccnc2)cc1` (stereo not drawn), the z-score was 0.0851. `COc1ccccc1CC1(C)NC(=O)N(CC(=O)N2CC(C)OC(C)C2)C1=O` (stereo not drawn) showed a z-score of -0.479. With `COc1ccc(OC)c(CNc2ccc(F)c(Cl)c2)c1` the z-score was 0.0546. Work on `CC(=O)N(CCC(Cc1ccccc1)c1ccc2c(c1)OCO2)Cc1ccc(Cl)cc1` (stereo not drawn) yielded a z-score of 0.0948. `COc1ccc(-c2nnc(-c3cc4ccccc4oc3=O)o2)cc1` gave a z-score of 0.115. Work on `CCSC1=N/C(=C\c2ccc3c(c2)OCO3)C(=O)S1` yielded a z-score of -0.606. In the case of `Cc1ccc(S(=O)(=O)NCCCC(=O)C=[N+]=[N-])cc1`, the z-score was 0.393. Work on `CCC(=O)N1CCNC(=O)C1CC(=O)Nc1ccc(C)c(Cl)c1` (stereo not drawn) yielded a z-score of -0.176. With `CCCC(=O)c1cc2c(cc1NC(=O)c1cccs1)OCCO2` the z-score was 0.269. Work on `O=C(/C=C/Nc1ccc(F)cc1F)c1cccs1` yielded a z-score of 0.000815. `Cc1onc(-c2ccccc2)c1C(=O)NC(=S)NNC(=O)c1ccc(O)cc1O` was tested, and the z-score was 0.439. For `NC(=O)C1(N2CCCCC2)CCN(C(=O)CCCn2c(=O)[nH]c3ccsc3c2=O)CC1`, the z-score was 0.207. `Cc1ccc2oc(=O)c(/C=C(\O)c3sc(C)nc3C)nc2c1` was tested, and the z-score was -0.168. With `O=C(Cn1c(=O)n(Cc2ccco2)c(=O)c2c3c(sc21)CCCCC3)Nc1ccccc1` the z-score was -0.747. With `Cn1c(=O)c2c(nc(NC3CCCCC3)n2CC(O)COc2ccccc2)n(C)c1=O` (stereo not drawn) the z-score was -0.00194. In the case of `COc1ccc(-c2noc(C3CCCN(C(=O)CCc4ccccc4)C3)n2)cc1` (stereo not drawn), the z-score was -0.776. Work on `CCCCN(CC)C(=O)c1ccc(Cl)c(Cl)c1` yielded a z-score of 0.066. `COc1cc2c(cc1OC)C(C(=O)NCc1cccnc1)C(c1cccnc1)N(C)C2=O` (stereo not drawn) gave a z-score of 0.233. In the case of `CCOC(=O)CNC(=O)CSc1nc2cccnc2n1CC`, the z-score was 0.216. `Cc1ccc(CC(=O)Nc2nc3c(s2)CCCC3)cc1` showed a z-score of -0.378. `O=C(COC(=O)Cc1cccc(C(F)(F)F)c1)NCC1CCCO1` (stereo not drawn) showed a z-score of 0.125. Molecule `Cn1c(=O)c2cc(S(=O)(=O)N3CCN(c4cccc(C(F)(F)F)c4)CC3)ccc2n(C)c1=O` has a z-score of -0.272. `COc1ccc(/C=N/NC(=O)c2ccoc2C)cc1COc1ccc(Cl)cc1` gave a z-score of -0.0725. In the case of `CC(NC(=S)Nc1c(Br)cccc1OC(F)F)C(C)(C)C` (stereo not drawn), the z-score was -2.09. `Cc1ccccc1NC(=S)NC(NC(=O)COc1ccccc1)C(Cl)(Cl)Cl` (stereo not drawn) gave a z-score of -0.000469. `COc1ccc2oc(C(F)(F)C(F)F)cc(=O)c2c1` showed a z-score of 0.141. `CCn1c(CCNC(=O)c2cccs2)nnc1SCC(=O)Nc1nc(-c2ccccc2)cs1` gave a z-score of 0.136. `COc1ccc(CNC(=O)CSc2nnc(-c3ccc(NC(C)=O)cc3)n2C)cc1` gave a z-score of -0.168. Molecule `O=C1CC(Cc2ccc(Cl)cc2)C(=O)N1c1ccccn1` (stereo not drawn) has a z-score of -0.00298. With `O=C(Nc1ccccc1C(=O)N/N=C/c1ccco1)c1ccc(Cl)cc1` the z-score was 0.162. With `C=CCn1c(Cc2csc(N)n2)nnc1SCc1ccc(C(=O)OC)cc1` the z-score was 0.116. In the case of `CCCCCOCC1CC(C/C(C)=N/Nc2nc(-c3ccccc3)cs2)C(=O)O1` (stereo not drawn), the z-score was 0.38. For `CC(C)C1NC(=S)N(Cc2ccccc2)C1=O` (stereo not drawn), the z-score was 0.0275. For `COc1ccccc1/C=C/C1(C(=O)NC2CCCC2)CC(=O)N1c1ccc(C)cc1` (stereo not drawn), the z-score was 0.482. `Cc1nn2c(-c3cccc(NC(=O)CN4CCOCC4)c3)nnc2c2ccccc12` showed a z-score of -0.149. With `O=C(COc1ccc(/C=N/NC(=O)c2cc3ccccc3o2)cc1Cl)Nc1ccccc1` the z-score was 0.112. Molecule `O=C(O)c1ccccc1OCCOc1ccccc1` has a z-score of -0.0988. For `O=C(Nc1cc(C(F)(F)F)ccc1Cl)C(Sc1nnc(-c2cccs2)o1)c1ccccc1` (stereo not drawn), the z-score was -0.0374. Molecule `Nc1nc(SCC(=O)Nc2ccccc2-c2ccccc2)n[nH]1` has a z-score of -0.0745. Molecule `CCOP(=O)(O)c1ccccc1OCCOCCOc1ccccc1P(=O)(O)OCC` has a z-score of 0.516. Work on `Cc1cc(C)c2c(N=NN(C)C)[nH]nc2n1` yielded a z-score of -0.0768. With `CC(C(=O)Nc1ncn[nH]1)N1C(=O)c2ccccc2C1=O` (stereo not drawn) the z-score was -0.00411. For `Cc1ccc(CNc2cnccn2)cc1`, the z-score was -0.094. Work on `Cc1cccc(C)c1NC(=O)CSc1nnc(Cc2ccccc2)o1` yielded a z-score of -0.104. `CN(CC(=O)NCc1ccc(Cl)cc1)S(=O)(=O)c1cccc2cccnc12` showed a z-score of -0.364. `O=C1NC(c2ccc(-c3ccccc3[N+](=O)[O-])o2)C(C(=O)c2ccc(F)cc2)C(O)(C(F)(F)F)N1` (stereo not drawn) was tested, and the z-score was 0.963. With `Cn1c(Cl)c(/C=N/OC(=O)c2ccc(Cl)cc2)c2ccccc21` the z-score was 0.0488. Work on `CC(=O)c1cc(NC(=O)c2cccc(C(F)(F)F)c2)c(=O)oc1/C=C/N(C)C` yielded a z-score of -0.214. `CCCOc1ccc(N2C(=O)CC(N(C(=O)c3ccco3)c3ccc(OCCC)cc3)C2=O)cc1` (stereo not drawn) was tested, and the z-score was 0.186. For `C/C(=C\C(=O)c1ccc(Br)cc1)NCc1ccc2c(c1)OCO2`, the z-score was -0.222. `Cc1cc(C)c(C#N)c(SCc2ccc3c(c2)OCO3)n1` was tested, and the z-score was -0.00435. `Brc1ccc(-c2nc(-c3ccccc3)no2)o1` showed a z-score of 0.0883. For `O=C(COC(=O)c1ccc(Br)o1)Nc1cccc(S(=O)(=O)N2CCCCCC2)c1`, the z-score was 0.698. With `CCCC(=O)Nc1ccc(-c2cnc(-c3ccc(NC(=O)CCC)cc3)nc2)cc1` the z-score was 1.35. Work on `COC(=O)c1cnn(C(=O)c2cc(OC)ccc2Br)c1N` yielded a z-score of -0.687. `CCOC(=O)c1cccc(NC(=O)C2CCCN(S(=O)(=O)c3cnc[nH]3)C2)c1` (stereo not drawn) was tested, and the z-score was -0.163. `COc1ccc(C)cc1NC(=O)c1ccccc1NS(=O)(=O)c1cccc2cccnc12` showed a z-score of 2.02. `CN1CCN(C(=O)CN(c2cc(C(F)(F)F)ccc2Cl)S(C)(=O)=O)CC1` gave a z-score of 2.63. With `COc1ccccc1CNS(=O)(=O)c1c(C)noc1C` the z-score was -0.0268. In the case of `O=C1OCC(c2ccccc2)=C1c1ccc(S(=O)(=O)N2CCOCC2)s1`, the z-score was 0.412. `CC(NS(=O)(=O)c1ccc(OCC(=O)Nc2cccc([N+](=O)[O-])c2)cc1)c1ccccc1` (stereo not drawn) was tested, and the z-score was -0.26. Work on `CCOC(=O)c1ccc(NC(=O)C2CCCN(S(=O)(=O)c3cnc[nH]3)C2)cc1` (stereo not drawn) yielded a z-score of -0.106. For `Cc1ccc(SCC(=O)Nc2cc(C)on2)cc1`, the z-score was 1.3. With `CCOC(=O)C1CCN(C(=O)c2cn(-c3ccccc3)nc2-c2cccnc2)CC1` the z-score was -0.00115. `CCOC(=O)c1cc(CC)sc1NC(=O)c1cc(OCC)c(OCC)c(OCC)c1` was tested, and the z-score was -0.349. Molecule `Cc1ccc(OCC(=O)c2ccc3c(c2)CCCC3)cc1C` has a z-score of -0.12. For `O=C(CSc1nnc2c(Cl)cc(Cl)cn12)NC1CCS(=O)(=O)C1` (stereo not drawn), the z-score was -0.0216. `CS/C(=N\N(C)C(N)=O)c1ccccc1` was tested, and the z-score was -0.643. `COC(=O)/C=C1/N/C(=N\c2nc(C)cc(C)n2)N(c2cccc(C)c2)C1=O` was tested, and the z-score was -0.0223. `CSc1nc2ccccc2n1Cc1cccc([N+](=O)[O-])c1` was tested, and the z-score was 0.0415. `CCCCCCOc1ccc(OC(=O)c2cccnc2)cc1` was tested, and the z-score was 0.898. `O=C(CSc1nnc2ccccn12)c1ccc(OC(F)F)cc1OC(F)F` was tested, and the z-score was -0.0638. Molecule `COc1cc(CNCc2ccccn2)ccc1OCc1c(Cl)cccc1Cl` has a z-score of 0.675. In the case of `O=C(N=C1c2ccccc2CN1c1ccccc1)c1cccc([N+](=O)[O-])c1`, the z-score was 0.152. Molecule `COC(=O)c1nnn(CC(=O)Nc2cccc(Cl)c2C)c1C(=O)OC` has a z-score of -0.193. With `COc1ccc2[nH]c(=O)c(CN(C(=O)c3cccnc3)c3ccccc3)cc2c1` the z-score was -0.372. `Cc1ccc(NC(=S)N2CCC(N(C)CC3CCCO3)CC2)c(C)c1` (stereo not drawn) gave a z-score of 0.396. Work on `Nc1nc(-c2ccc(Cl)cc2)cn1N` yielded a z-score of 0.0703. Molecule `CCOC(=O)c1c(-c2ccccc2)[nH]c2ccc(O)cc12` has a z-score of -0.821. For `CCn1nc(C(=O)N[C@@H](CCSC)c2nc3ccccc3[nH]2)c2ccccc2c1=O`, the z-score was -0.73. `CCNc1nc(NCC)nc(N2CC(=O)N(CC(=O)OCC)C2=N)n1` gave a z-score of -0.154. With `c1ccc(-c2cn3c(n2)CCc2ccc4cccnc4c2-3)cc1` the z-score was -0.0599. For `Cc1ccc(NC(=O)c2ccc(N/N=C/c3cccc(O)c3)c([N+](=O)[O-])c2)cc1`, the z-score was -0.607. Work on `O=C(NCc1ccc2c(c1)OCO2)c1ccc(N2CCCCCC2)c([N+](=O)[O-])c1` yielded a z-score of -0.0656. In the case of `O=C(O)CCCC(=O)NCc1ccccn1`, the z-score was -0.279. With `O=C(CSc1ccc(Cl)cc1)NCC1CCCO1` (stereo not drawn) the z-score was -0.031. In the case of `Cn1cc([N+](=O)[O-])c(C(=O)Nc2nc(-c3ccc(Cl)cc3)cs2)n1`, the z-score was 0.61. `Cc1cc(C(=O)N/N=C/c2ccc(O)c([N+](=O)[O-])c2)c(C)n1-c1ccc(F)cc1` gave a z-score of -0.202. Work on `CCCNc1ncnc2c1cnn2-c1ccc(OC)cc1` yielded a z-score of -0.301. `COc1ccccc1-c1csc(NC(=O)c2cc(-c3cccs3)nc3ccccc23)n1` was tested, and the z-score was -0.0159.
